Measurements published in the supplement of paper PMC11417369.
± gives the standard deviation of the averaged measurements. The list shows a part of the results.

The sequences below were run on PfAP2-I AP2 domain 3 (GST-tagged) (assay: gcPBM binding intensity (ln(normalized median fluorescence intensity)); higher = stronger DNA binding).
In short: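 Binding intensity values are the highest Masliner-normalised natural-log median intensity among replicate spots of either probe orientation. The binding step lasted 1 h in 1× PBS with 1% milk, 0.2 mg/ml BSA, 0.5% salmon testes DNA and 0.03% Triton X-100, using GST-tagged P. falciparum DNA-binding domains expressed in E. coli on an Agilent 4 × 180k array of primer-extended double-stranded 36-bp intergenic genomic probes plus negative controls. Alexa488 anti-GST antibody and a 488 nm scan detected bound protein.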

Sequence | gcPBM binding intensity (ln)
AATAATAGAAAAAGGTGTACTTATAAACATATACAC [XGTACX_site6921] | 8.18 ± 0.23
ATATATTTTTTTTCTTCACACACATGAATTATATAT [CACACA_site9053] | 8.2 ± 0.68
ATATATATATATATATGTACATATTATATATGAACG [XGTACX_site1585] | 9.59 ± 0.57
GTAATTATTATTAATAGTACACACTATGGCATTTCA [XGTACX_site5192] | 7.8 ± 0.47
GAAATTTTTAAATACAGTACACACATGGGTTTAAAT [XGTACX_site6124] | 7.9 ± 0.72
ATACTTCAATCTATTTGTACATATTTTTTAAAACCA [XGTACX_site2328] | 8.17 ± 0.62
ATAAAGCCATACAATACACACATTTGACATGTCCGT [CACACA_site7523] | 8.07 ± 0.73
AATAATAAAAAATATACACACATATATAAATAAATA [CACACA_site6164] | 7.47 ± 0.58
TATATATATATATATTGTACTAATTGTGCAAATGAG [XGTACX_site682] | 9.76 ± 0.67
TAAGAAAAAAAATAATGTACATATGTATTTGAGAAA [XGTACX_site3569] | 7.71 ± 0.5
AAAAAAAAAAAAAAAAAAAAAAAAAAATATATATAT [CACACA_negctrl_site271] | 9.82 ± 0.18
TGCTACTTATAAATAGAACACACATAAGTGTATTTG [CACACA_site9253] | 7.59 ± 0.38
ATATATACATATGGGTGTACATATGCACATATATAT [XGTACX_site8437] | 8.76 ± 0.63
TTTAAAATAAATATTACACACAAAATATTAAAAAGC [CACACA_site2129] | 7.88 ± 0.71
ACAAAAAAAAACGTGGTGCATTAATAATATTGTATA [GTGCAC_site9469] | 11.7 ± 0.3
TAGTTAATATGAAAAAGTACACGTTTCAGTGAAAGT [XGTACX_site7402] | 8.18 ± 0.81
AAAAAAAAAAAAACTTGTACATGTGATATTATCTAT [XGTACX_site6169] | 7.71 ± 0.49
ATTTAATACATACATTCACACACACTAATTGTATAT [CACACA_site9361] | 8.05 ± 0.64
TTAAATGTTCTATATACATGCAATGATATGTTTCTG [TGCATGCA_site317] | 7.58 ± 0.48
TCAAAGTAGGCTTATATGCACACTTTGAAATATTAT [CACACA_site1920] | 9.165 ± 0.035
ATAAGAAGGAACATAAATATATCATAAAAAAAAAAA [GTGCAC_negctrl_site169] | 7.84 ± 0.57
TAAAATTTTTTATTCACACAAATATAGTTATATATA [CACACA_site5348] | 7.44 ± 0.45
AAATTAATATAAATATGTACATAAATAATAAAATAT [XGTACX_site6131] | 7.83 ± 0.42

Sequence | gcPBM binding intensity (ln)
GTTTTCCTTCCCTTTCCCCCTCAAAAAAAGGGAACA [TGCATGCA_negctrl_site436] | 9.61 ± 0.071
AAGGAATAAAGAAGTTGTACATAATTTGTATCATCC [XGTACX_site3891] | 7.7 ± 0.54
ATTTTTCAAACTTTAGTGCAATGAAAGAAAGAAAAA | 10.2 ± 0.32
GGAGGTTGTTATAAAAGTACAAAAAGTTGCAATTTT [XGTACX_site7351] | 8.19 ± 0.54
TCATTATATACAATATGTACATATATGTAATAAACA [XGTACX_site4611] | 7.86 ± 0.37
AAAGAATTCATTATTTGTACTTAAATAAATAAATAA [XGTACX_site5932] | 7.68 ± 0.77
AGAAAGAAAGAATACACACACACATATATATATATC [CACACA_site3744] | 7.9 ± 0.44
AGCACACGCAGACACACACACACACGCACACGCACA [CACACA_site6306] | 8.15 ± 0.56
AAAGGATATGCTTCATATATATATTGTTATATATGT [CACACA_negctrl_site1672] | 7.57 ± 0.5
ATAACACAAAAAGGGGGTACAATAAAAAAAAAAAAA [XGTACX_site1652] | 8.72 ± 0.21
TATTTATATAGGTATACACACATACAAATATGTAAA [CACACA_site7705] | 7.46 ± 0.42
AATACCTATAATACAACACACAAGTAATATAAACCT [CACACA_site7661] | 7.92 ± 0.69
TACACCCACATATATATACACACTTTTATTTAAATA [CACACA_site1596] | 8.15 ± 0.28
AAAAAAAATAATGTTGCACACAACAACAAACAAAAA [CACACA_site3290] | 8.835 ± 0.049
AATATATATATATGTGCACACATATATAATATGTAT [CACACA_site716] | 9.2 ± 0.58
CAATATGGAAAATAAAGTACGCACACAAAAATTCTC [XGTACX_site4793] | 8.37 ± 0.49
TAGATAAAATGAACATGTACTCATCTTAATATATAT [XGTACX_site34] | 7.63 ± 0.42
TTATTCTAAAAATATACACACAACAACAAACAAACA [CACACA_site1543] | 8.63 ± 0.17
ATGTGTTTCTTCAATTGTACTAAAAGGTATATATTG [XGTACX_site4608] | 7.93 ± 0.59
ATACTATAATATAAAACACACATATGTACCTTCTAA [CACACA_site7323] | 7.8 ± 0.63
ATTATTTAAATTTAACGTACGGAATAAGACATAGAT [XGTACX_site8622] | 8.39 ± 0.66
TAGTAACTTGTATTCACACAAATTATATTATATTAC [CACACA_site5041] | 7.79 ± 0.22
TATATAATATATAAATGTACTTTTGTCTTATATGAA [XGTACX_site7211] | 7.57 ± 0.26

Sequence | gcPBM binding intensity (ln)
TTTTTTTTTTTTTTTTTTTTACAGAAAAATATTAAA [CACACA_negctrl_site128] | 8.09 ± 0.79
AATCATTAAAGCATAATGTTTATGATCAATATGAAA [CACACA_negctrl_site887] | 7.41 ± 0.52
TTCAGGTAATAACATTGTACATGTGTATCATAATTA [XGTACX_site6740] | 7.7 ± 0.56
GAAATATTACAAAGTACATGCAACGAAAATTTCAGT [TGCATGCA_site608] | 7.89 ± 0.76
GATAATACATAAATTTATAAGTGGAAGAATAAATAA [CACACA_negctrl_site698] | 8.07 ± 0.6
ACAAACAAATAAATATGTACGAATAAATAAAATTTT [XGTACX_site4664] | 7.61 ± 0.6
TTTTTTTTCAAAAATACAAAAAAAAAAGAAAAAAAC [CACACA_negctrl_site625] | 8.06 ± 0.4
TGCTCTAATTTATATACACACAAATATGTACACATA [CACACA_site7845] | 8.07 ± 0.38
TAATTTTTTTAAGAGAGTACATGACTCAACAGTTTA [XGTACX_site3103] | 7.49 ± 0.4
TTTCATAAATAATAAAATAAAATATGAAGCAAAAGG [CACACA_negctrl_site1767] | 7.88 ± 0.68
TTATATCCAACTTGAAAAAAGGTATATGTTTATATA [CACACA_negctrl_site1746] | 7.47 ± 0.47
TTTTTTTTTTTTTGGAGTACATGTTTATAACATAAT [XGTACX_site1799] | 8.17 ± 0.67
TTATTATCTCTTGTCATTATTATATACTAAGAAGTA [CACACA_negctrl_site410] | 7.58 ± 0.71
AATATGAAATATATTACACACATTTATATGTTGAAA [CACACA_site1427] | 7.59 ± 0.39
AATACACCCAGACACACACACAAAAAAAAAAAAAAA [CACACA_site513] | 8 ± 0.58
ATATATATATTAAATACACACATTTTTGATTAGGTT [CACACA_site3119] | 8.99 ± 0.057
TTTGAATCCTTATATACACACATTATGTAATATTAT [CACACA_site561] | 7.75 ± 0.65
AAAAGAGAAATGGGCACACACACACCGATTATATAT [CACACA_site4942] | 7.93 ± 0.66
ATTACATTTTTAATGCGTACTAAAAATGTATATAAG [XGTACX_site6384] | 7.96 ± 0.3
AATATAAAAATGTTTACACACACACCCAAATATATT [CACACA_site2511] | 8.02 ± 0.49
AGAATTACTTAAAAAAGTACATAAAATTATTTAAAA [XGTACX_site2205] | 7.64 ± 0.21
AAAAGTCTCTTTTTAGTGCACATTTTATTTAAATAT | 11.32 ± 0.078
CAGATAAGGTGAAGCTGTACAAAAATGTTTTATAAC [XGTACX_site6783] | 7.78 ± 0.69

Sequence | gcPBM binding intensity (ln)
TCTAATTATCACATTGCACACACATTTCCTTTTACA [CACACA_site9140] | 8.97 ± 0.34
TAATTAATTTATGTAACACACATTGTTGATTCAATA [CACACA_site1098] | 7.73 ± 0.44
TTATACTGTATAGTCGCACACAAAAATATAAAATAT [CACACA_site3869] | 7.84 ± 0.43
ATTTTAATAAACACTTACATGTTTTCCAAATTGTAT [CACACA_negctrl_site1807] | 7.46 ± 0.61
TTCGTTAAAAATAAATGTACATAAATAAACCTTATT [XGTACX_site621] | 7.71 ± 0.3
ATATTAAGAATGTATACATGCATATATATATAGTAC [TGCATGCA_site219] | 8.16 ± 0.63
TATTAATAAATATGTTTACACACGAAAATACATTTT [CACACA_site1012] | 7.64 ± 0.73
AAAGATTTAGAAAATGAACACACGAGCACCCACCGA [CACACA_site1017] | 8.99 ± 0.29
GAAAGAGAGATATATACACACATATTTATATTTTTA [CACACA_site7057] | 7.52 ± 0.49
ATGGAATATTTCATGATTTTTTTAATTTTTTTATTG [XGTACX_negctrl_site55] | 7.17 ± 0.76
ATTTTCATATTTTTATGTACATATTATAAGAATATA [XGTACX_site3691] | 7.92 ± 0.32
TATCTTTTTTTTAATACACACAAATTTATGAAAGTA [CACACA_site7879] | 8.01 ± 0.4
TGTCTTTATATATATTTATTTTTTAGTATTACATAA [CACACA_negctrl_site21] | 7.83 ± 0.6
TGTATAAATAAATGCGTACACACTAATAAAAAAAAA [CACACA_site858] | 8.22 ± 0.46
AAAAAAAATATGATGAGTACACAATAATACATGCAA [XGTACX_site6999] | 8.04 ± 0.44
TTATGTAAATAATTTTGTACTTAAATTATTATATAA [XGTACX_site1491] | 7.49 ± 0.28
CAACTTTTTGAAAATTGTACATGACATATATATATA [XGTACX_site260] | 9.29 ± 0.38
GTGGTTATATATTAAGTGCATATTATAATTTTAAAC | 9.56 ± 0.14
AATATCTAAAATGTGTGTACATAATATTTTTAATAT [XGTACX_site3831] | 7.78 ± 0.4
ATAGATAAAAAATTATTTATTTAGAATTTTTATGTA [CACACA_negctrl_site400] | 7.29 ± 0.38
